# Laboratory results: paper PMC4336329 (PLoS ONE, 2015)
# The campaign covered roughly 310,000 compounds. About 2,200 (0.71%) showed an effect of 50% or more. The effect is printed as a negative number. This is one part of the list.
# Biological target: human ether-à-go-go-related gene (hERG) potassium channel (human, UniProt Q12809)
# Assay: primary screen, population patch clamp on CHO cells stably expressing hERG
# human ether-à-go-go-related gene (hERG) potassium channel, sequence (Q12809 whole entry, looked up): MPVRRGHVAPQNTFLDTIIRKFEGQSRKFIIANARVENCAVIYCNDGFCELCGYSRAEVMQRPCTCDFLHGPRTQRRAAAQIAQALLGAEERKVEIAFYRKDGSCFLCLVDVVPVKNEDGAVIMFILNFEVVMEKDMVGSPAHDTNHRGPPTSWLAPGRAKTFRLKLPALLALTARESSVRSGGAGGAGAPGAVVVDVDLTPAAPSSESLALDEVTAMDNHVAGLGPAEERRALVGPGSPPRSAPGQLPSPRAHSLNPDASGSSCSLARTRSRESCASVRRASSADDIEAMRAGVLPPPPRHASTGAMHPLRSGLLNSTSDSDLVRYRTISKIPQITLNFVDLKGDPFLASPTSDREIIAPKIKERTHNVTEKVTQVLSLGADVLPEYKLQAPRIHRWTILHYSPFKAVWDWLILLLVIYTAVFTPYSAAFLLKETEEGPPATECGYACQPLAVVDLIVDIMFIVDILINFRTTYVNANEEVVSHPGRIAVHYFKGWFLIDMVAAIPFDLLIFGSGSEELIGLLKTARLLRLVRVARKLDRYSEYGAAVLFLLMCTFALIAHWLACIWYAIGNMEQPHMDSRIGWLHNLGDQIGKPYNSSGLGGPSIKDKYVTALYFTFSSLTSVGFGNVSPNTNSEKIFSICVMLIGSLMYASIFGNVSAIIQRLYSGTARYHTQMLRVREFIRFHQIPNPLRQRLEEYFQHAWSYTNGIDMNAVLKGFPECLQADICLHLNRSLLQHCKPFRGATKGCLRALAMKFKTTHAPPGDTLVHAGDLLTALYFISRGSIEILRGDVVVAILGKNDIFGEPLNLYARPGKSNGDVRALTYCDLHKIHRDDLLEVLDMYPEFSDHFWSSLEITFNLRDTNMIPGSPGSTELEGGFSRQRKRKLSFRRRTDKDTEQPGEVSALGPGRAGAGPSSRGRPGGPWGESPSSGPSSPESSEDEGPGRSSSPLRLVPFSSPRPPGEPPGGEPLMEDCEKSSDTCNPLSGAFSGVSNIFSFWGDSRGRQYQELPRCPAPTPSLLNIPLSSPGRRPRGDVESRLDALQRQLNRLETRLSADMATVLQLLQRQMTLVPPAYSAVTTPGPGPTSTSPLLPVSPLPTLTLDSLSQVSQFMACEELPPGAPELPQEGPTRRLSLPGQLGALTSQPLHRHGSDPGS
row,Compound,"hERG current change (%, negative = inhibition) at 1uM [%]"
1,c1ccc(-c2noc(C34CC5CC(CC(C5)C3)C4)n2)nc1,6.57
2,COc1ccc(CC(=O)c2ccc(OC3OC(CO)C(O)C(O)C3O)cc2O)cc1 (stereo not drawn),15.3
3,FC(F)(F)c1cc(C(F)(F)F)c2ccc(N3CCN(c4ncccn4)CC3)nc2n1,-1.74
4,CC(=O)Nc1cccc(C(=O)OCc2ccc(C(=O)Oc3ccc(Cl)cc3)cc2)c1,6.8
5,Cc1ccc(NC(=O)COC(=O)Cc2cccs2)c(Br)c1,14.3
6,Cc1cccc(OCC(=O)Nc2ccncc2)c1C,15.9
7,CCOc1cc(CNC)ccc1OCC(=O)NC(C)(C)C.Cl,16.9
8,CCOC(=O)N=S(=O)(Oc1ccc([N+](=O)[O-])cc1)c1ccccc1 (stereo not drawn),-6.14
9,CCC(=O)c1c[nH]c(C(=O)NCCCN2CCOCC2)c1,12.3
10,CCOCCCN(Cc1ccco1)C(=O)c1cc2c(=O)[nH]c3ccc(C)cc3c2s1,6.08
11,CCCCCCn1c(NCC)nc2c1c(=O)[nH]c(=O)n2C,3.92
12,Cc1ccc(CN2CC(C(=O)N3CCN(c4ccccc4Cl)CC3)CC2=O)cc1 (stereo not drawn),4.56
13,O=C(COC(=O)Cc1ccc(Br)cc1)NC12CC3CC(CC(C3)C1)C2,7.75
14,COc1ccc(Br)cc1CN1CCN(C(=O)Cc2ccccc2)CC1.Cl,-1.38
15,Oc1c(/C=N/c2ccccn2)sc2ccccc12,9.26
16,COc1ccc(C(=O)NC(C)C2CC3CCC2C3)c(OC)c1 (stereo not drawn),7.97
17,CN(C)S(=O)(=O)c1cc(C(=O)N2CCC(C(=O)O)(c3ccccc3)CC2)ccc1Cl,16.4
18,COc1ccc(S(=O)(=O)NCCC(=O)N2CCCC2)cc1N(C)S(C)(=O)=O,12.2
19,CCCCCCCC(=O)N/N=C/c1ccco1,-1.1
20,COc1ccc(N(C)S(=O)(=O)c2cccc(C(=O)N3CCN(S(=O)(=O)c4ccc(C)cc4)CC3)c2)cc1,0.539
21,CCOC(=O)N1CCN(C(=O)C(=O)N/N=C/c2ccc(OC)cc2OC)CC1,7.19
22,S=c1[nH]nc(-c2ccn[nH]2)n1-c1ccccc1Cl,10.4

row,Compound,"hERG current change (%, negative = inhibition) at 1uM [%]"
1,CC(NC(=O)[C@@H](C)NC(=O)[C@@H]1Cc2ccccc2CN1C(=O)OC(C)(C)C)c1ccccc1 (stereo partly drawn),11.1
2,O=C(C1CCC(C(=O)N2CCc3ccccc32)CC1)N1CCc2ccccc21 (stereo not drawn),10.5
3,O=C(C1CCC(=O)N(C2CC2)C1)N1CCC(Oc2cccc(F)c2)CC1 (stereo not drawn),-3.87
4,C=CCn1c(Cc2ccc(OC(C)C)c(Cl)c2)nnc1SCC(N)=O,9.03
5,CC(=O)NCc1cccc(CNC(C)=O)n1,7.49
6,COc1ccc(N2C(=O)CC(N3CC=C(c4ccccc4)CC3)C2=O)cc1 (stereo not drawn),5.01
7,COc1ccc(OC)c(Cc2nnc(CCC(=O)N3CCCCC3c3nccs3)o2)c1 (stereo not drawn),9.59
8,COc1cccc(CNC(=O)CCC2CCCN(c3cc(C)nc(N)n3)C2)c1 (stereo not drawn),-18.3
9,COc1ccc(CCNC(=O)c2cc3c(=O)n4ccccc4nc3n(CCN3CCOCC3)c2=N)cc1,-82
10,CC1(O)CC(c2ccc(Cl)cc2)=NN1C(=O)c1ccc(Cl)cc1 (stereo not drawn),11.3
11,Cc1ccc2cn[nH]c2c1NC(N)=S,6.8
12,CC(=O)Nc1cccc(C(=O)OCC(=O)NCc2cc(C)c(O)c(C)c2)c1,-20.5
13,CSc1ccc(CN2CCSCC2)cc1,9.85
14,C=CCN1C(=O)C(O)(CC(=O)c2ccccn2)c2ccccc21 (stereo not drawn),3.7
15,COc1ccc(NC(=O)c2ccccc2[N+](=O)[O-])cc1,13.2
16,Cc1cc(NC(=O)CSc2nnc(Cn3c(=O)sc4ccccc43)n2-c2ccccc2C)no1,12.3
17,CN(CC(=O)Nc1c(Cl)cccc1Cl)C(=O)C1CCN(C(=O)Nc2ccccc2)CC1,10.9
18,CC(C)(C)c1ccc2c(c1)OC(C(=O)N/N=C\c1ccccn1)CO2 (stereo not drawn),6.25
19,O=C(CCSCCc1ccccn1)Nc1ccc(Cc2ccncc2)cc1,8.07
20,CN(CC(=O)Nc1cccc(S(=O)(=O)NC2=NCCC2)c1)Cc1ccccc1Cl,-1.75
21,CCOC(=O)COc1cccc2c(=O)n(CC(=O)NCc3ccccc3)ccc12,9.66
22,O=C(c1ccco1)c1cn(Cc2ccc(Cl)cc2)c2ccccc12,6.55

row,Compound,"hERG current change (%, negative = inhibition) at 1uM [%]"
1,COc1ccc(-c2cc(C(=O)N3CCN(c4ccccc4O)CC3)c3ccccc3n2)cc1,5.58
2,O=C(c1ccccc1)c1ccc(COC(=O)c2cnccn2)cc1,5.17
3,Cc1ccccc1C1=NC(C(F)(F)F)(C(F)(F)F)c2c(n(-c3ccc(F)cc3)c(=O)[nH]c2=O)N1,11.5
4,COc1ccc(/C=C/C(=O)OCc2csc(-c3ccccc3)n2)cc1OC,17.2
5,Fc1ccc(CNCCc2ccccc2)cc1.O=C(O)C(=O)O,5.08
6,CCN(CC)S(=O)(=O)c1ccc(N2CCOCC2)c(NC(=O)c2ccc(N3CCCC3=O)cc2)c1,14.1
7,Cc1[nH]c(=O)c(C#N)c(C)c1CSc1ncccn1,5.9
8,CCOC(=O)C1=C(C)NC(=O)CC1c1cc(OC)c(OC)cc1Br (stereo not drawn),15.6
9,CCn1c(=S)sc2c(=O)n(CC(=O)Nc3ccc(OC)c(Cl)c3)c(C)nc21,18.4
10,O=C(Nc1ccc(Br)cc1)N1CCCCCC1,8.3
11,CCC(C)NC(=O)CSc1nc2ccccc2c(=O)n1-c1c(C)n(C)n(-c2ccccc2)c1=O (stereo not drawn),10.1
12,CC1CC(C)CN(c2oc(Cc3ccccc3)nc2C#N)C1 (stereo not drawn),7.63
13,O=C(CSc1nc2cc(Cl)ccc2s1)Nc1cccc(S(=O)(=O)N2CCOCC2)c1,12.2
14,O=C(Nc1ccccc1)c1ccc(CN2CCC(Cc3ccccc3)CC2)cc1,12.7
15,COc1ccc(NC(=O)CCS(=O)(=O)c2cc3c(cc2C)NC(=O)CO3)cc1,-12
16,COc1ccc(-c2nnn(CC(=O)N(CC(=O)NC3CCCC3)Cc3ccco3)n2)cc1OC,4.9
17,FC(F)(F)c1ccc(C2[C@H]3CN(Cc4cccnc4)[C@H](c4ccccc4)C34CC2(c2cccnc2)C4)cc1 (stereo partly drawn),13.7
18,COCCOc1nc2c(c(=O)n(C)c(=O)n2C)n1CCc1ccccc1,4.69
19,COc1ccc2c(c1OC)C(=O)OC2Nc1nc(-c2ccc([N+](=O)[O-])cc2)cs1 (stereo not drawn),11.7
20,Cc1c(NC(=O)Nc2ccccc2[N+](=O)[O-])c(=O)n(-c2ccccc2)n1C,13.2
21,O=C(Nc1nnc(-c2ccc(Cl)cc2)o1)C1CCCCC1,12.6
22,CC(=O)Nc1c(Cl)cc([N+](=O)[O-])c2ccccc12,7.63

row,Compound,"hERG current change (%, negative = inhibition) at 1uM [%]"
1,O=C(Nc1cccc(C(=O)O)c1)/C(=C\c1ccco1)NC(=O)c1ccc(Br)o1,7.51
2,O=C(NCc1ccccn1)c1cccc(S(=O)(=O)N2CCCCC2)c1,-19.9
3,O=C(c1ccc2c(c1)OCCO2)N(c1ccccn1)C1CCCCC1,11.5
4,CC(=O)Nc1ccc(S(=O)(=O)NC2(C(F)(F)F)N=C(c3ccccc3)NC2=O)cc1 (stereo not drawn),16.5
5,CCC(C)(C)NC(=O)CN(Cc1cccs1)C(=O)CNS(=O)(=O)c1ccc(C)cc1,1.79
6,Cl.Cn1c(=N)n(CC(O)c2ccco2)c2ccccc21 (stereo not drawn),1.97
7,COc1ccc(NC(=O)C2CCCN2S(=O)(=O)c2ccc(Cl)cc2)cc1 (stereo not drawn),11.9
8,CCOC(=O)c1c(C)[nH]c(C)c1S(=O)(=O)N(C)CC(=O)NCc1ccc(C)cc1,14.1
9,Cl.O=S(=O)(c1ccc(OCC(O)CNCc2ccco2)c(Cl)c1)N1CCOCC1 (stereo not drawn),-4.65
10,O=C(Nc1ccncc1)c1cn(-c2ccccc2)nc1-c1cccs1,10.5
11,Cc1cc(=O)oc2cc(OCC(=O)N3CC[C@@]4(O)CCCC[C@H]4C3)c(Cl)cc12,-5.58
12,NC(=O)c1ccccc1OCC(=O)c1ccc(Cl)cc1,8.57
13,N#CC(Cc1cccc(CC(C#N)(c2ccccc2)c2ccccc2)c1)(c1ccccc1)c1ccccc1,13.6
14,O=C(COc1ccc(Cl)cc1)NCCSc1ccccc1,-2.52
15,CCN(CC)CCn1c(C)nc2ccccc21.Cl,6.38
16,COC(=O)c1sccc1NC(=O)CSc1nnnn1-c1ccccc1F,13.8
17,CCn1c(C)cc(=S)c2ccccc21,-3.06
18,N#CC1(c2ccccc2)CCC(=NO)CC1 (stereo not drawn),14.6
19,CC(C)CC(=O)N1CCN(CC2CC=CCC2)CC1.O=C(O)C(=O)O (stereo not drawn),4.6
20,CCCNC(=O)c1c(Cl)cnn1-c1ccc(C)cc1,4.22
21,COc1ccccc1C1/C(=C(/O)c2ccc(C)cc2)C(=O)C(=O)N1CC(C)O (stereo not drawn),13
